This is one part of the list. At the low end of the ranking, values are background and their order means little.
test system: MYC (p64) + MAX (p21), in MYC:MAX; test: protein-binding microarray (anti-MAX antibody); conditions: PBM: 15 mM Tris-HCl pH 7.5, 100 mM KCl, 0.075% NP40, 7.5 mM beta-mercaptoethanol, 375 ng/ul BSA, 8 ng/ul poly(dA-dT):(dA-dT), 550 ng complex, 60 min, room …; high values mean tight binding; double strand, one strand shown; sequences stand for … in CCGGC…TTAATAGCTAAGATTACTATATCGACG

Sequence	binding signal (log2 normalized fluorescence)
TGAACCTGCGTA	0.156
GATGCGCGACCA	0.327
TGACAAGTGGGA	0.302
TGAAAGTCAGTA	-0.0668
TGAACGACCGTA	0.201
TGACACGTGAAG	0.527
TGATTCGGGGTA	0.0525
TGATAAAAGGTA	-0.00131
TGATCGCGCGTA	0.284
TGACACTTTGTA	0.302
TGAGCAACGGTA	-0.0565
TGATATGAGGTA	-0.0821
TGATTGCGTGTA	0.205
TGTCATGTTGTA	0.371
TGAGTGGGGGTA	0.621
TGAATCAAAGTA	-0.00984
ATAAAATTCAGC	0.125
TGAGCACTAGTA	0.224
TGAGCAAGTGTA	0.173
TGAGCCTGGGTA	-0.148
TGACGGGAGGTA	0.133
TGATCAAAAGTA	-0.139
TGAACTTGTGTA	0.308

Sequence	binding signal (log2 normalized fluorescence)
TGAGACGCAGTA	0.055
TGTTGCGTGGTA	0.336
TGACGAGGCGTA	0.179
TGAACTGCAGTA	0.0203
TGAAGCTGTGTA	-0.0331
TGAAAAACTGTA	0.00768
TGACATAAAGTA	0.134
TGACCACGGGTA	0.358
TGACACACTGTA	0.432
TGAGATAAGGTA	-0.09
ATAATGCGCTTA	0.423
TGATACGAGGGA	0.115
TGAGCTCTTGTA	-0.104
AGATACGCGGTA	0.252
TGACGTCACGTA	0.246
TGATTGTGCGTA	0.0842
TGAATTCCTGTA	0.0453
TGAAGGATAGTA	0.047
TGATGAAAGGTA	-0.00378
TGTCACCCGGTA	0.261
TGAGGTCTTGTA	0.0507
TGACCAGTCGTA	0.0688
TGAACTGACGTA	0.117

Sequence	binding signal (log2 normalized fluorescence)
TGAGATATTGTA	-0.0986
TGACAGGAAGTA	0.167
TGAGCAAGGGTA	0.201
TGATGATAAGTA	-0.0828
TGATGCCGAGTA	0.0024
TGATGCTCAGTA	0.152
TGACACGTATAA	0.512
TGAGGCCTAGTA	0.0219
TGAAGCTCAGTA	-0.0107
TGACACGTCCAA	0.369
TGAGAGTCAGTA	0.106
TGAAACGATGTA	0.299
TGACTAAAAGTA	0.0453
TGATACGCGGTC	0.0753
TAACTCGTGGTA	0.792
TGAATGCGGGTA	0.103
TGATGCTTTGTA	0.198
AGAAATCTTGTT	0.151
TGAGTCCCAGTA	-0.0334
TGAGAGAACGTA	-0.0341
TGATCCATGGTA	0.033
TGAGGGGCTGTA	0.412
TGACCCTGCGTA	0.102

Sequence	binding signal (log2 normalized fluorescence)
TAGCACGTGGTA	0.917
TGAATGAGCGTA	-0.0492
TGACCCGGCGTA	0.132
TGACACGTAGTG	0.396
TGATTACTTGTA	0.0962
TGATCGAAAGTA	-0.157
TGACCGGCAGTA	0.151
TGAATATTAGTA	0.0425
TGAGGTTCTGTA	-0.0942
TGATATCACGTA	0.14
TGAGTCCCTGTA	-0.0383
TGAGGAACTGTA	-0.147
TGATGCAGCGTA	0.0277
TGAGCCAGTGTA	0.17
TGAATCCCCGTA	-0.0106
TGATGTCGTGTA	0.39
TGAGTCATAGTA	0.0316
TGACCTTCGGTA	-0.000527
TGAAGTAGTGTA	-0.0724
TGATGCCTAGTA	0.068
TGAATGCAAGTA	0.211
AACCACGTGGTA	0.742
TGACACCCCGTA	0.283

Sequence	binding signal (log2 normalized fluorescence)
TGAGTACTAGTA	-0.261
TGACACGTGAGG	0.702
AGACATGGGGTA	0.458
TGAGAGTAAGTA	-0.116
TGAATGCATGTA	0.293
TGACACGAATTA	0.413
TGATCCCCGGTA	-0.125
TGAGGAAATGTA	-0.124
TGACCAAATGTA	0.145
TGACGGCAAGTA	-0.0545
TGAGCTATAGTA	-0.0105
TGAAACGCCGTA	0.289
TGATGCAAGGTA	0.186
TGATATTGTGTA	0.115
TGATAACAGGTA	-0.0157
TGACCGAAAGTA	-0.112
TGACACGTCAGA	0.387
TGAACCTTTGTA	-0.0493
GTGACGATCAGC	0.409
TGATCGTTGGTA	-0.054
TGGCACGTGGCA	0.721
TGAAGATGAGTA	-0.0701
TGACTCTGTGTA	-0.0698

Sequence	binding signal (log2 normalized fluorescence)
TGCCACGTGCGA	0.695
TGACTATTCGTA	-0.0584
TCCCACTTGGTA	0.205
TGAGTAGATGTA	0.0114
TGAACGTCCGTA	-0.0316
TGATGATAGGTA	-0.035
TGATACAGGGTA	-0.0382
TGCCACTTGGTG	0.338
TGAACGGGAGTA	0.0172
TGACACGTAGGA	0.308
TGAGTCTAGGTA	-0.13
TGAAGCGAAGTA	-0.0696
TGAGACCCAGTA	0.0192
TGACACGTGCAT	0.894
TGATCCGGCGTA	-0.0199
TGATCTCCTGTA	0.121
TGAACATCCGTA	0.283
TGATTGGACGTA	-0.101
TGTCACGAGGTA	0.787
TGAACGCGCGTA	0.441
TGAGCTAATGTA	0.0657
TGAGCTGGTGTA	-0.111

— publication PMC5515408
